According to PubChem BioAssay (NCATS):
Several values for one entry are separate records, joined by “and”; a condition that tells them apart may be missing. Identical values can stand only once. Inconclusive results, whose numbers are uncertain, are shown with a selection of clear calls. For some of these results: Potencies of inconclusive entries are doubtful fits and often do not repeat. Activity calls are given as the source filed them. The call rests on the fitted dose curve; in most records, active means well fitted curve in the direction sought with a large enough effect; inconclusive means small, poorly fitted or top-dose-only effect, or another doubt; inactive means no such curve, though single readings can be large; an effect the other way counts as inactive or inconclusive.

Tests used:
[1] = Viability qHTS for spleen associated tyrosine kinase inhibitor (SYKi) naive MV4-11 cells (AID 1963823); conditions: MV4-11 AML viability, CellTiter-Glo luminescence, 72 h; series mostly up to 45 µM; further: nearly all actives have a fitted effect of over 40% in size; further: potency means the concentration at half of the fitted maximal effect
In short: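 Viability of MV4-11 AML cells lacking prior SYK inhibitor exposure is scored by CellTiter-Glo luminescence following 72 hr compound incubation at 37 C, 5% CO2, seeded at 500 cells per well.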

[2] = Quantitative highthroughput screen to assess conditional lethalithy of NOMO1 cells grown in RPMI1640 with dialyzed fetal bovine serum (RPMI+ds) (AID 1963877); further: nearly all actives have a fitted effect of over 30% in size; further: potency means the concentration at half of the fitted maximal effect
In short: (§1)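 Each medium arm—HPLM with 10% dialyzed FBS, or RPMI1640 with 5 mM glucose and 10% untreated or dialyzed FBS—was screened against an 11-point, 3-fold compound titration for 48 h at 37 °C, with CellTiter-Glo luminescence as endpoint.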

[3] = Quantitative highthroughput screen to assess conditional lethalithy of SEM cells grown in Human Plasma-Like Medium with dialyzed fetal bovine serum (HPLM+ds) (AID 1963882); further: nearly all actives have a fitted effect of over 35% in size; further: potency means the concentration at half of the fitted maximal effect
In short: as §1

[4] = Quantitative highthroughput screen to assess conditional lethalithy of SEM cells grown in RPMI1640 with unreated serum (RPMI+s) (AID 1963883); conditions: SEM B-ALL cells, CellTiter-Glo viability, 48 h; viability: at 45.8 µM (top of the series); further: nearly all actives have a fitted effect of over 35% in size; further: potency means the concentration at half of the fitted maximal effect
In short: as §1

[5] = Quantitative highthroughput screen to assess conditional lethalithy of SEM cells grown in RPMI1640 with dialyzed fetal bovine serum (RPMI+ds) (AID 1963884); conditions: SEM B-ALL cells, RPMI+dialyzed FBS, CellTiter-Glo viability, 48 h; viability: at 45.8 µM (top of the series); further: nearly all actives have a fitted effect of over 35% in size; further: potency means the concentration at half of the fitted maximal effect
In short: as §1

[6] = Quantitative highthroughput screen to assess conditional lethalithy of P12 Ichikawa cells grown in RPMI1640 with untreated serum (RPMI+s) (AID 1963881); conditions: Potency: viability; further: nearly all actives have a fitted effect of over 35% in size; further: potency means the concentration at half of the fitted maximal effect
In short: as §1

[7] = Cellular viability qHTS for adrenocortical cancer (ACC) cell line SW-13 (AID 1963989); conditions: SW-13 ACC cells viability, CellTiter-Glo, 48 h; activity (max response): active compounds read low; further: potency means the concentration at half of the fitted maximal effect; nearly all actives have a fitted effect of over 65% in size
In short: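 SW-13 cells in ITS-supplemented serum-free DMEM were plated overnight, then exposed for 48 h at 37C to compound titrations (up to 46 uM final). Viability was read by CellTiter-Glo luminescence; four-parameter logistic fits gave IC50 and efficacy.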

[8] = Quantitative highthroughput screen to assess conditional lethalithy of P12 Ichikawa cells grown in Human Plasma-Like Medium with dialyzed fetal bovine serum (HPLM+ds) (AID 1963879); conditions: Potency: viability; further: nearly all actives have a fitted effect of over 35% in size; further: potency means the concentration at half of the fitted maximal effect
In short: as §1

[9] = Quantitative highthroughput screen to assess conditional lethalithy of P12 Ichikawa cells grown in RPMI1640 with dialyzed fetal bovine serum (RPMI+ds) (AID 1963880); conditions: Potency: P12-Ichikawa viability; further: nearly all actives have a fitted effect of over 35% in size; further: potency means the concentration at half of the fitted maximal effect
In short: as §1

[10] = Cellular viability qHTS for adrenocortical cancer (ACC) cell line NCI-H295R (AID 1963990); conditions: CellTiter-Glo ATP luminescence, 48 h; series mostly up to 46.1 µM; further: nearly all actives have a fitted effect of over 60% in size; further: potency means the concentration at half of the fitted maximal effect
In short: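 Luminescent ATP read-out (CellTiter-Glo, 20 min RT) after 48 h drug exposure of NCI-H295R cells; a titration up to 46 uM final. Data normalized to doxorubicin (100% inhibition) and DMSO (0%); 4-parameter fit gives IC50, max response.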

[11] = Quantitative highthroughput screen to assess conditional lethalithy of NOMO1 cells grown in Human Plasma-Like Medium with dialyzed fetal bovine serum (HPLM+ds) (AID 1963878); conditions: NOMO1 AML cells in HPLM+ds, CellTiter-Glo viability, 48 h; viability: at 45.8 µM (top of the series); further: nearly all actives have a fitted effect of over 35% in size
In short: as §1
Tags describe the fitted curve by direction and shape.

| Structure (SMILES) | Potency [1] | Potency [2] | Potency [3] | Potency [4] | Potency [5] | Potency [6] | Potency [7] | Potency [8] | Potency [9] | Potency [10] | Potency [11] |
| --- | --- | --- | --- | --- | --- | --- | --- | --- | --- | --- | --- |
| CN(C1CCc2c(c3ccccc3n2CC(=O)O)C1)S(=O)(=O)c1ccc(F)cc1 (configuration not stated) | inactive | active: 7.43 µM | inactive | inconclusive: 16.6 µM [cytotoxic, partial curve] | inconclusive: 16.6 µM [cytotoxic, partial curve, poor fit] |  |  |  |  |  |  |
| CN(C)C/C=C/C(=O)Nc1ccc(C(=O)Nc2cccc(Nc3ncc(Cl)c(-c4c[nH]c5ccccc45)n3)c2)cc1 | inconclusive: 9.2 nM [cytotoxic, full curve] and inconclusive: 11.8 nM [cytotoxic, full curve] | active: 0.263 µM | active: 0.209 µM | active: 0.186 µM |  | active: 0.331 µM | active: 0.282 µM |  |  |  |  |
| C=CCc1cc(OC)c(O)c(C(=O)NCCO)c1 | inconclusive: 33.5 µM [cytotoxic, single point] | inactive | inconclusive: 9.35 µM [cytotoxic, partial curve, poor fit] | inactive | inactive |  |  | inactive |  |  |  |
| CCOC(=O)c1c(C)n(C)c2ccc(O)cc12 | inconclusive: 16.8 µM [cytotoxic, partial curve, poor fit] and inconclusive: 37.2 µM [cytotoxic, single point] | inactive |  |  | inactive | inactive |  |  | inconclusive: 16.6 µM [cytotoxic, partial curve, poor fit] | inconclusive: 18.4 µM [cytotoxic, single point] |  |
| NC(CO)C(=O)NNCc1ccc(O)c(O)c1O (configuration not stated) | inconclusive: 33.2 µM [cytotoxic, single point] | inactive |  | inconclusive: 37.2 µM [cytotoxic, single point] | inconclusive: 29.6 µM [cytotoxic, single point] |  | inconclusive: 20.6 µM [cytotoxic, partial curve, poor fit] | inconclusive: 37.2 µM [cytotoxic, single point] | inconclusive: 37.2 µM [cytotoxic, single point] | inconclusive: 29.1 µM [cytotoxic, single point] |  |
| C[C@@H]1CC[C@@]2(OC1)OC1CC3C4CC=C5CC(O)CCC5(C)C4CCC3(C)C1[C@@H]2C (some centres not stated) | inconclusive: 7.42 µM [cytotoxic, partial curve, poor fit] | inconclusive: 20.9 µM [cytotoxic, partial curve] | inconclusive: 18.7 µM [cytotoxic, partial curve, poor fit] | inconclusive: 23.5 µM [cytotoxic, partial curve, poor fit] | inconclusive: 18.7 µM [cytotoxic, partial curve, poor fit] | inconclusive: 20.9 µM [cytotoxic, partial curve] |  | active: 11.8 µM | active: 18.7 µM | inactive |  |
| C=C(c1ccc(C(=O)O)cc1)c1cc2c(cc1C)C(C)(C)CCC2(C)C | inconclusive: 89.1 nM [cytotoxic, full curve] and inconclusive: 94.4 nM [cytotoxic, full curve] and inconclusive: 116 nM [cytotoxic, full curve] | active: 1.05 µM |  | inactive | inactive |  |  |  |  |  |  |
| Nc1ccn([C@@H]2C(F)=C(CO)[C@@H](O)[C@H]2O)c(=O)n1 | inconclusive: 0.59 µM [cytotoxic, full curve] | active: 2.95 µM | inconclusive: 4.67 µM [cytotoxic, full curve] | inconclusive: 2.63 µM [cytotoxic, full curve] | active: 1.48 µM | inconclusive: 3.71 µM [cytotoxic, full curve] | inconclusive: 1.26 µM [cytotoxic, full curve] |  |  | inconclusive: 15.8 µM [cytotoxic, partial curve, poor fit] |  |
| Cc1cc(-c2ncc(CC(=O)Nc3ccc(-c4cnccn4)cn3)cc2C)ccn1 | active: 5.25 µM |  |  |  |  |  |  |  |  |  | inactive |
| CN1c2ccccc2C(=O)N2CCc3c([nH]c4ccccc34)C21 (configuration not stated) | active: 1.64 µM |  |  |  |  |  |  | inactive |  |  | inactive |
| Clc1cccc(Cl)c1NC1=NCCN1 | inactive | inactive |  |  |  |  |  |  | inactive |  |  |
| Cc1n[nH]c(C)c1Cc1sc2c(c1C(=O)N1C[C@H](O)CO1)c(=O)n(C)c(=O)n2CC(C)C | inactive | inactive | inconclusive: 4.18 µM [cytotoxic, partial curve] | inconclusive: 10.5 µM [cytotoxic, partial curve, poor fit] | inactive |  |  |  | inactive | inconclusive: 1.58 µM [cytotoxic, partial curve, poor fit] |  |
